# From PubChem BioAssay AID1346428 (National Center for Advancing Translational Sciences (NCATS), 2018)
# “And” between values parts separate entries of the source, which are not always exact repeats. Equal values may be shown once. The campaign covered roughly 48,000 compounds. About 1,200 (2.5%) were called active. Another 2% or so got no clear call; they are omitted.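 The calls were made as follows: active = activation of at least 60% and not above a set upper limit (about 1 call in 100 departs from these limits); inconclusive = activation of 40% to 60%, or above that upper limit; inactive = activation under 40%.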 Some of the results follow.
# Target: Probable G-protein coupled receptor 32 (Homo sapiens) (UniProt O75388)
# Experiment: qHTS for Agonists of Human Resolvin D1 Receptor DRV1; also: 0% is about no effect
# Settings: CHO-K1 GPR32 beta-arrestin PathHunter luminescence, 90 min; at 76.9 µM; hits give high values; zero percent set by DMSO-only wells
# Outline: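 Agonism was scored by beta-Gal fragment complementation (chemiluminescent read, 1 h detection at ambient temperature) reporting beta-arrestin binding to GPR32 in engineered CHO-K1 cells. Compound treatment lasted 90 min at 37 C, normalized to a DMSO basal control.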
# Sequence of UniProt O75388 (O75388 whole entry, looked up): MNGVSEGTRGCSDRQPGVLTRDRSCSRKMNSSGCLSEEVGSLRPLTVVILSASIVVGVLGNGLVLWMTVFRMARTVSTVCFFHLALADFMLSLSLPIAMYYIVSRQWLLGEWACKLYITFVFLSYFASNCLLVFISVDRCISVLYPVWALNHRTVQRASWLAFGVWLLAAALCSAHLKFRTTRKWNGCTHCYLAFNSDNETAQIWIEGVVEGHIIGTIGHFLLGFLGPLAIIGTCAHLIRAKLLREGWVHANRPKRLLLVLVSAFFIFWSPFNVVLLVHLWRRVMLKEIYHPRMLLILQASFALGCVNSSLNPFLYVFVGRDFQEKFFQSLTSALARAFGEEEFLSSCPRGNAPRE
row,Structure (SMILES),activation
1,CCn1c(C(=O)N2CCC(C(=O)N3CCN(c4cc(C)ccc4C)CC3)CC2)cc2sccc21,inactive: -16.7%
2,CCOc1ccc(CNC(=O)c2cccc(NC(=O)N3CCSc4ncccc43)c2)cc1,inactive: -1.73%
3,CC(=O)N1CCc2cc(S(=O)(=O)NC(CC(C)C)C(=O)Nc3ccc(C(C)C)cc3)ccc21 (stereo not drawn),inactive: -7.93%
4,CC(C)Cn1cc(NC(=O)Nc2cccc(C(F)(F)F)c2)c2ccccc2c1=O,inactive: -15.4%
5,CCOC(=O)N1CCc2c(sc3c2c(=O)n(Cc2ccccc2)c(=O)n3Cc2cc(C)ccc2C)C1,inactive: -4.18%
6,Cc1cc(-c2ccc(C)c(S(=O)(=O)N3CCC(C)CC3)c2)on1,inactive: -8.22%
7,CCOC(=O)c1c(C)sc(-c2c(-c3ccc4c(c3)OCCO4)[nH]c3c2c(=O)n(C)c(=O)n3C)c1O,inactive: -18.5%
8,CC(=O)N1c2ccc(S(=O)(=O)N3CCCCCC3)cc2CC1C(=O)NC(C)C (stereo not drawn),inactive: 8.48%
9,CC(C)CC(=O)Nc1nc2c(s1)CC(C(C)(C)C)CC2 (stereo not drawn),inactive: -9.24%
10,COC(=O)c1ccc(NC(=O)CN2C(=O)CCc3cc(S(=O)(=O)N4CCCCC4)ccc32)cc1,inactive: 6.73%
11,O=C(O)CCn1c(=O)c2cccn2c2cccnc21,inactive: -8.26%
12,Cc1[nH]c(=O)[nH]c(=O)c1S(=O)(=O)N1CCN(c2ccccc2Cl)CC1,inactive: 0.0159%
13,COc1ccc(S(=O)(=O)NCC(c2ccco2)N2CCN(c3ccccc3)CC2)cc1OC (stereo not drawn),inactive: -28.8%
14,CCOC(=O)c1cc(-c2ccccc2)n(CCCC(=O)Nc2cccc(C)c2C)c1C,inactive: -25.3%
15,N#Cc1ccccc1Cn1c(=O)n(-c2cccc(C(F)(F)F)c2)c(=O)c2sccc21,inactive: -14.3%
16,COc1ccccc1NC(=O)c1sc2nc(C)c(C(=O)Nc3ccc(C)cc3C)c(-c3cccs3)c2c1N,inactive: -17.2%
17,CCc1ccc(NC(=O)CC2C(=O)N(c3ccc(Cl)cc3)C(=O)N2Cc2ccco2)cc1 (stereo not drawn),inactive: -21%
18,CCc1ccccc1Nc1nn2c(=O)c3ccc(C(=O)NC(C)c4ccccc4)cc3nc2s1 (stereo not drawn),inactive: -22.2%
19,Cc1ccc(NC(=O)C(=O)NCC(c2cccnc2)N2CCN(c3ccccc3F)CC2)cc1Cl (stereo not drawn),inactive: -13.2%
20,COc1cc2[nH]c(=O)n(CCCC(=O)NCc3ccc(Cl)cc3)c(=O)c2cc1OC,inactive: 2.01%
21,Cc1cccc2sc(N(Cc3cccnc3)C(=O)c3cccs3)nc12,inactive: -16.3%

row,Structure (SMILES),activation
1,CCc1ccc(CN2CCc3nc(Nc4ccccc4)ncc3C2)cc1,inactive: -30.2%
2,CCOc1cc2[nH]c(=O)n(CCCCC(=O)N3CCN(c4cccc(Cl)c4)CC3)c(=O)c2cc1OCC,inactive: -5.31%
3,CC(=O)Nc1ccc(NC(=O)c2cc3sccc3n2Cc2ccc(F)cc2)cc1,inactive: -9.23%
4,CC(C)(C)C1CCc2c(sc3nc(-c4cc5cc(Br)ccc5oc4=O)[nH]c(=O)c23)C1 (stereo not drawn),inactive: 1.9%
5,CCOC(=O)c1c(C)[nH]c(CCC(=O)NCc2ccc(F)cc2)c1C,inactive: -8.08%
6,CCOC(=O)C1CCN(C(c2cccc(F)c2)c2c(O)cc(C)n(Cc3ccco3)c2=O)CC1 (stereo not drawn),inactive: -10.7%
7,COCCCNC(=O)c1cnc2c(-c3ccc(F)cc3)c(C)nn2c1C,inactive: -14.9%
8,O=C(c1ccc(Br)cc1)N1CCN(CCc2ccncc2)CC1,inactive: -12%
9,Cn1nc(-c2ccccc2F)c2cc(C(=O)NCCc3ccc(Cl)cc3)sc21,inactive: -24.1%
10,CCN1CC(CCN2CCOCC2)C(c2ccccc2)(c2ccccc2)C1=O (stereo not drawn),inactive: -36.6%
11,COc1ccc(-c2noc(N(c3cccc(Cl)c3)c3nc(-c4ccc(OC)c(OC)c4)no3)n2)cc1OC,inactive: -1.06%
12,CN(C)c1ccc(CNC(=O)c2cnc3sc(N4CCOCC4)nn3c2=O)cc1,inactive: -0.545%
13,CCOc1ccc(-c2nc(SCC(=O)c3ccccc3)n[nH]2)cc1,inactive: 35.7%
14,CC(=O)c1ccc(NC(=O)CSc2ccc(-c3cccs3)nn2)cc1,inactive: 7.03%
15,Cc1ccc(S(=O)(=O)Cc2ccc(C(=O)NCCc3ccc(Cl)cc3)o2)cc1,inactive: 38.9%
16,Brc1cccc(-c2nnc(CN3CCN(c4ccccn4)CC3)o2)c1,inactive: -5.59%
17,Cc1cccc(-n2cc(-c3ccccc3)c3c(NC4CCCC4)ncnc32)c1,inactive: -39%
18,C=Cc1ccc(Cn2nc(-c3ccc(C)cc3)ccc2=O)cc1,inactive: -16.7%
19,CCOC(=O)c1cc(C)n(CC2CCC(C(=O)Nc3cccc(C)c3)CC2)c1C (stereo not drawn),inactive: -16.1%
20,CCOC(=O)c1c(NC(=O)c2ccc(S(=O)(=O)N3CCC(C)CC3)cc2)sc2c1CCN(CC)C2,inactive: -4.67%
21,COC(=O)C1=C(C)NC(=O)C1(NC(=O)c1cc(OC)c(OC)c(OC)c1)C(F)(F)F (stereo not drawn),inactive: 15.4%

row,Structure (SMILES),activation
1,Cc1cc(C)nc(NC(=NCCc2c[nH]c3ccc(Cl)cc23)NC(=O)c2ccccc2C)n1,inactive: 35.9%
2,COc1ccc(OC)c(NC(=O)C2CCN(S(=O)(=O)c3ccc4c(c3)CCCC(=O)N4)CC2)c1,active: 72.5%
3,CCOC(=O)c1ccc(NC(=O)CCC(=O)N2Cc3ccccc3Oc3ncccc32)cc1,inactive: -6.52%
4,CCOC(=O)c1c(S(=O)(=O)N2CCCC(C(=O)Nc3cc(C)ccn3)C2)c(C)n(C)c1C (stereo not drawn),inactive: 0.173%
5,O=C(c1cc(O)c(O)c(O)c1)c1ccc(O)c(O)c1O,inactive: -27.9%
6,O=C(NC1CCCCC1)c1ccc(CSc2nc3cccnc3n2Cc2ccc(F)cc2)cc1,inactive: 20.8%
7,O=C1c2[nH]nc(-c3ccccc3O)c2C(c2ccccc2F)N1Cc1cccnc1 (stereo not drawn),inactive: -8.99%
8,Cc1cccc(-n2c(Cc3ccccc3)nnc2SCc2nc(-c3cccs3)no2)c1,inactive: 8.73%
9,O=C(CN1C(=O)COc2ccc(S(=O)(=O)N3CCCC3)cc21)N1CCN(c2ccc(F)cc2)CC1,inactive: -0.452%
10,O=C1CC(c2nnc(Cc3ccc(F)cc3Cl)o2)CN1c1ccccc1 (stereo not drawn),inactive: -0.424%
11,CCOC(=O)c1ccc(N2C(=O)c3n[nH]c(-c4ccco4)c3C2c2ccc(O)c(OCC)c2)cc1 (stereo not drawn),inactive: -5.62%
12,Cc1cccc(Nc2nnc(-c3ccc(C)c(S(=O)(=O)NCC4CCCO4)c3)c3ccccc23)c1 (stereo not drawn),inactive: -10.3%
13,COCCNc1ccc(-c2nc(-c3ccco3)no2)cc1[N+](=O)[O-],inactive: -10.1%
14,O=P(O)(O)C(Cl)(Cl)P(=O)(O)O,inactive: 10.1%
15,O=C(Nc1ccccc1C(F)(F)F)n1ncc2cc(Cl)ccc21,inactive: 10.2%
16,COc1ccc2cc3c(N)nn(C(=O)c4ccc(OC)c(OC)c4)c3nc2c1,inactive: -2.52%
17,Cc1ccc(-c2cc(C(=O)NCc3ccccc3Cl)c3ccccc3n2)cc1C,inactive: -5.88%
18,Cc1ccc2c(c1)N(CCCC(=O)Nc1cccc(C(F)(F)F)c1)C(=O)CO2,inactive: -20.2%
19,COc1cccc(CNC(=O)C2CCN(S(=O)(=O)c3ccc4c(c3)CCCN4C(C)=O)CC2)c1,inactive: -9.38%
20,CCOc1ccc(-c2nc3c(c(SCC(=O)N4CCCCC4)n2)Cc2cccc(OC)c2O3)cc1,inactive: -12.7%
21,CCCCOc1cc(C(=O)NCCN(CC)CC)c2ccccc2n1,inactive: -12.9%

row,Structure (SMILES),activation
1,CCCCN1C(=O)C(O)(CC(=O)c2ccc(C(C)(C)C)cc2)c2ccccc21 (stereo not drawn),inactive: -4.68%
2,CCCn1c2ccccc2c2cnn(CC(=O)N3CCN(c4ccccc4)CC3)c(=O)c21,inactive: -32.7%
3,CCOc1ccc(NC(=O)c2ncoc2-c2ccco2)cc1,inactive: 45.3%
4,COc1cc(NC(=O)Cn2cc(C(=O)c3ccc(F)cc3)c(=O)c3ccc(C)nc32)cc(OC)c1,inactive: 19.1%
5,Cc1ccc2nc3c(cc(C#N)c(=O)n3-c3nnc(SCc4ccccc4)s3)c(=O)n2c1,inactive: 15%
6,Cc1cccc(CSc2ncc(Cl)c(C(=O)Nc3nc4ccc(F)cc4s3)n2)c1,inactive: -5.97%
7,CC(C)NC(=O)c1ccc(NC(=O)N2CCCCc3ccccc32)cc1,inactive: 6.42%
8,CCOc1cc(C#N)c(NC(=O)Cn2nnc(-c3ccc(C)cc3)n2)cc1OCC,inactive: 10%
9,COc1cccc(CNC(=O)c2ccc(-n3c(C)cc4c3CCC(C)C4)cc2)c1 (stereo not drawn),inactive: -11%
10,O=C(Cn1c(=O)nc(-c2ccccc2)c2cc(Cl)ccc21)Nc1ccc(F)c(Cl)c1,inactive: -2.21%
11,CCOc1ccc(-c2nnc(SCC(=O)Nc3cccc(OC)c3)nc2-c2ccc(OCC)cc2)cc1,inactive: -14.3%
12,O=C(NCC(c1ccc(Cl)cc1)N1CCOCC1)c1ccccc1F (stereo not drawn),inactive: -5.73%
13,CCS(=O)(=O)CCn1c([N+](=O)[O-])cnc1C,inactive: 9.68%
14,COc1cccc(C2CC(=O)Nc3c2c(=O)[nH]c2nc4ccccc4n32)c1 (stereo not drawn),inactive: 15.1%
15,O=C(COc1ccc([N+](=O)[O-])cc1)Nc1nc2c(s1)CCCC2,inactive: -5.22%
16,COc1ccc(C(=O)NCC(c2ccc3c(c2)OCO3)N2CCN(c3ccccc3F)CC2)cc1 (stereo not drawn),inactive: -28.9%
17,O=C1CCc2cc(OCCCCc3nnnn3C3CCCCC3)ccc2N1,inactive: 29.8% and inactive: 12.1%
18,Cc1ccccc1-c1nnn(CC(=O)Nc2sc3c(c2C#N)CCC(C(C)(C)C)C3)n1 (stereo not drawn),inactive: 25.7%
19,CCc1ccc(NC(=O)Cn2c(=O)n(CCCCC(=O)NCCc3ccc(Cl)cc3)c(=O)c3ccccc32)cc1,inactive: -3.92%
20,COc1cc(OC)cc(-c2nc(-c3ccc4c(c3)[nH]c(=O)n4C)no2)c1,inactive: -9.44%
